In PubChem BioAssay AID651820 (National Center for Advancing Translational Sciences (NCATS), 2012):
The campaign covered roughly 340,000 compounds. About 12,000 (3.5%) were called active. Inconclusive results, whose numbers are uncertain, are shown with a selection of clear calls. The call rests on the fitted dose curve; in most records, active means well fitted inhibition curve with a large enough effect; inconclusive means small, poorly fitted or top-dose-only effect, or another doubt; inactive means no such curve, though single readings can be large or run the other way. No potency is given beside an inconclusive call; the fits are too rough.

Test: qHTS Assay for Inhibitors of Hepatitis C Virus (HCV)
Settings: Huh7.5.1 HCVcc-Cre (HCVcc is cell-culture hepatitis C virus) infection, luciferase reporter, 44 h; activity change, negative = inhibition: at 41.8 µM (top of the series) unless noted
In short: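 Cells (1,000/well) were plated 4 h before compound, then infected with HCVcc-Cre virus (~0.5 moi). After 44 h further culture, infection was read as luciferase luminescence following a 15 min substrate incubation at room temperature.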
On the % scale 0 is the no-effect control and ±100 the full control effect; potency means the concentration at half of the fitted maximal effect; tags describe the fitted curve by direction and shape.

Compound | Potency | activity change, negative = inhibition
COc1ccc(NC(=O)N(Cc2ccc(C)cc2)Cc2cccnc2)c(OC)c1 | inconclusive [inhibitor, single point] | –
Cc1cc(C(=O)CSc2nnnn2C)c(C)n1-c1cccc(F)c1 | inconclusive [inhibitor, full curve, poor fit] | –
Cc1occc1-c1nnc(SCC(=O)c2ccc3c(c2)OCCO3)n1CC1CCCO1 (stereo unspecified) | inactive | –
COc1ccccc1OCc1ccc(C(=O)NC(C)c2ccccc2)o1 (stereo unspecified) | active: 7.08 µM | –
CCc1nc(N2CCN(C(=O)c3ccccc3)CC2)c(C#N)c2c1COC(C)(C)C2 | inconclusive [inhibitor, single point] | –
Cc1cc(C)c(S(=O)(=O)c2ccc(Cl)cc2C)c(Cl)n1 | – | inconclusive: -43.1% [inhibitor]
COC(=O)c1cn(-c2cccc(C)n2)cn1 | inconclusive [inhibitor, single point] | –
COc1cccc(CN2CCC(C(=O)N3CCN(c4ccccc4F)CC3)CC2)c1 | inactive | –
CCOc1cc(CNCCc2ccc(S(N)(=O)=O)cc2)ccc1OCC(=O)NC(C)(C)C | inconclusive [inhibitor, single point] | –
C=CCN(c1ccccc1)S(=O)(=O)c1cccc(C(=O)Nc2ncccc2C)c1 | inactive | –
CC1(C(=O)N2CCN(c3ccc([N+](=O)[O-])cc3)CC2)CC1(Cl)Cl (stereo unspecified) | active: 11.2 µM | –
CSc1cccc(NS(=O)(=O)c2cn(C)cn2)c1 | inactive | –
Cc1cc(=O)oc2c(C)c(OCC(=O)Nc3cccnc3)ccc12 | inactive | –
CCOC(=O)c1c(S(=O)(=O)NCC(=O)Nc2cc(C)ccn2)c(C)n(C)c1C | inactive | –
CC12C(=O)N(c3cccc(OC(=O)c4ccco4)c3)C(=O)C1C1c3ccccc3C2c2ccccc21 (stereo unspecified) | inconclusive [inhibitor, single point] | –
O=C(N/N=C/c1cccn1-c1ccccc1)c1ccncc1 | inconclusive [inhibitor, partial curve] | –
Cc1nn(Cc2ccc(Cl)c(Cl)c2)c(C)c1NC(=O)c1cc(CC(C)C)on1 | active: 11.2 µM | –
COc1ccc2nc(SCCC(=O)O)cc(C)c2c1 | inactive | –
Cc1c(-c2ccccc2)nc2ccccc2c1C(=O)Oc1ccc([N+](=O)[O-])cc1 | inconclusive [inhibitor, full curve, poor fit] | –
CC1=CCC2C(=O)N(c3nc4ccccc4n3C)C(=O)C2C1 (stereo unspecified) | inactive | –
COc1ccc(/C=N/NC(=O)c2cccc(C(=O)N/N=C/c3ccc(OC)c(OC)c3)n2)cc1OC | inactive | –
COc1cccc2sc(Nc3nnc(-c4ccc(F)cc4)o3)nc12 | inconclusive [inhibitor, single point] | –
CS(=O)(=O)CCC(C(=O)OCc1ccc(Br)cc1)N1C(=O)c2ccccc2C1=O (stereo unspecified) | inactive | –
CCOC(=O)Cn1cc([N+](=O)[O-])nc1[N+](=O)[O-] | inconclusive [inhibitor, single point] | –

Compound | Potency | activity change, negative = inhibition
CCOc1ccccc1C(=O)NCCCCNC(=O)c1ccccc1OCC | inconclusive [inhibitor, partial curve] | –
COc1ccc(C(=O)NNC(=O)C(=O)Nc2ccc(C)cc2)cc1 | inactive | –
Cc1ccccc1C(=O)N1CCC(C(=O)N(CC(C)C)c2c(N)n(Cc3ccccc3)c(=O)[nH]c2=O)CC1 | inactive | –
CCCc1cc(=O)oc2cc(C)cc(OCC(=O)NC3CCN(Cc4ccccc4)CC3)c12 | inconclusive [inhibitor, single point] | –
CCOC(=O)C1CCN(C(=O)COC(=O)CSc2ccccc2C)CC1 | inactive | –
Cc1ccc2nc(-c3ccc(NC(=O)CN4C(=O)NC(C)(c5ccc(OC(F)F)cc5)C4=O)cc3)sc2c1 (stereo unspecified) | inconclusive [inhibitor, partial curve] | –
COC(=O)c1ccc(CNC(=O)Cn2cnc3c(SC)nc(N)nc32)cc1 | inconclusive [inhibitor, single point] | –
Cc1ccc(CNc2ccc(N3CCOCC3)cc2)cc1 | inconclusive [inhibitor, single point] | –
CCCCc1c(CCC)c(=N)c2ccccc2n1C | inconclusive [inhibitor, partial curve, poor fit] | –
COC(=O)[C@H](CC(C)C)NCc1cccc(CN[C@@H](CC(C)C)C(=O)OC)c1 | inactive | –
CC(C)n1c(N2CCN(C(=O)Nc3ccc(Cl)cc3)CC2)nc2ccccc21 | inconclusive [inhibitor, partial curve] | –
CCn1nccc1C(=O)Nc1ccc(S(=O)(=O)NC23CC4CC(CC(C4)C2)C3)cc1 | inconclusive [inhibitor, partial curve, poor fit] | –
O=C(COc1ccc(S(=O)(=O)NC2CCCCC2)cc1)NCc1ccccn1 | inactive | –
O=C(N/N=C/c1cn(-c2ccccc2)nc1-c1ccc2c(c1)OCCO2)c1ccncc1 | inactive | –
CCOC(=O)C(C)N1C(=O)S/C(=C\c2ccc(-c3ccccc3C(=O)O)o2)C1=O (stereo unspecified) | inactive | –
O=C(CCNC(=O)c1ccco1)Nc1ccccc1OC(F)F | inactive | –
CC1(C)Cc2c(sc3nc(-c4ccccc4Cl)n(N)c(=O)c23)CO1 | inconclusive [inhibitor, partial curve] | –
CCCCCc1ccc(-c2ccc(OC)cc2)nc1 | inactive | –
COC(=O)[C@H]1[C@H]2C[C@@H]3c4[nH]c5cc(OC)ccc5c4CCN3C[C@H]2C[C@@H](OC(=O)c2ccc(N)cc2)[C@@H]1OC | inconclusive [inhibitor, partial curve] | –
CCn1c(Cn2nnc(-c3ccccc3)n2)nnc1SCC(=O)Nc1cccc(C)c1C | inactive | –
CN(CC1CCCN(CCc2cccc(C(F)(F)F)c2)C1)C(=O)c1ccc2nc[nH]c2c1 (stereo unspecified) | inconclusive [inhibitor, single point] | –
Oc1ccc(Br)cc1-c1cc(-c2ccccc2)n[nH]1 | inconclusive [inhibitor, partial curve] | –
CCc1ccccc1N1C(=O)C(Cl)=C(N2CCOCC2)C1=O | inactive | –
COc1cccc(CNC(=O)Cc2ccc(OC)c(S(=O)(=O)N3CCOCC3)c2)c1 | inactive | –

Compound | Potency | activity change, negative = inhibition
Cc1cccc(C)c1NC(=O)CSc1nnc(Cn2nnc(-c3ccccc3)n2)n1-c1ccccc1 | inconclusive [inhibitor, partial curve] | –
COCCN1Cc2cccc(C(=O)Nc3cc(C)cc(C)c3)c2C1=O | inconclusive [inhibitor, partial curve] | –
FC(F)(F)c1ccncc1-c1nnc(C2CCCCC2)o1 | inactive | –
CC(Sc1nc(C(F)(F)F)nc2ccccc12)C(=O)NC1CCCC1 (stereo unspecified) | inconclusive [inhibitor, single point] | –
COC(=O)C1C(c2ccc(OC)c(OC)c2)NC(c2ccc(OC)c(OC)c2)C(C(=O)OC)S1(=O)=O (stereo unspecified) | inactive | –
CC1CCN(S(=O)(=O)c2ccc(NC(=O)Cc3ccc(S(=O)(=O)N4CCOCC4)s3)cc2)CC1 | inconclusive [inhibitor, single point] | –
CC(C)(C)OC(=O)N1CCC(NC(=O)c2nc[nH]c2C(=O)NCc2ccccc2)CC1 | inactive | –
CC/C(=N/Nc1ccccc1)c1cnnc(-c2ccccc2)n1 | active: 8.91 µM | –
COC(=O)c1sc(N)c(C(=O)OC)c1COC(=O)c1c(C)noc1C | inconclusive [inhibitor, single point] | –
COc1cccc(C(=O)N2N=C(c3ccccc3)CC2(O)C(F)(F)F)c1 (stereo unspecified) | inconclusive [inhibitor, partial curve, poor fit] | –
CCCCNC(=S)N(C)/N=C/c1ccc(OCC(=O)Nc2ccc(OC)cc2)c(OC)c1 | inconclusive [inhibitor, full curve] | –
COc1ccccc1CSc1ncc(-c2ccc([N+](=O)[O-])cc2)[nH]1 | inconclusive [inhibitor, single point] | –
Cc1cc(=O)[nH]c(N/N=C/C2=C(N3CCOCC3)C(=C\c3ccc(Cl)cc3)/CC2)n1 | inconclusive [inhibitor, full curve, poor fit] | –
Cc1ccc(NC(=O)CSc2ncc(-c3ccccc3)n2C(=O)c2ccccc2)cc1 | inactive | –
O=C(Oc1cccc(NC2=NS(=O)(=O)c3ccccc32)c1)c1cccnc1 | inactive | –
CCOc1cc2c(cc1OCC)-n1cccc1C(c1ccc(OC(F)F)cc1)NC2 (stereo unspecified) | inconclusive [inhibitor, single point] | –
Cc1ccc(Nc2cc(-n3nc(C)cc3C)ncn2)c(C)c1 | inconclusive [inhibitor, single point] | –
Cc1ccc(NC(=O)NCCCc2ccccc2)cc1 | inactive | –
COc1ccc(-c2cc3c(=O)n(CC(=O)NCCN4CCCC4)nc(C)n3n2)cc1 | inconclusive [inhibitor, single point] | –
Cc1ccc(/C=C/C(=O)c2ccccc(=O)c2O)cc1C | inconclusive [inhibitor, partial curve] | –
O=C(c1cccc(S(=O)(=O)N2CCCC2)c1)N1CCN(S(=O)(=O)c2cccc(Cl)c2)CC1 | inconclusive [inhibitor, single point] | –
COc1ccc(C2=NOC(Cn3nc(C(=O)NCc4ccc(C)cc4)cc3-c3ccccc3)C2)cc1 (stereo unspecified) | active: 8.91 µM | –
O=C(NCC(c1ccco1)N1CCCC1)c1cccc(S(=O)(=O)Nc2ccc(F)cc2)c1 (stereo unspecified) | inconclusive [inhibitor, single point] | –
